# Measured values reported in article PMC4336329 (PLoS ONE, 2015).
# The campaign covered roughly 310,000 compounds. About 2,200 (0.71%) showed an effect of 50% or more. The effect is printed as a negative number. The list shows a part of the results.
# Molecular target: human ether-à-go-go-related gene (hERG) potassium channel (human, UniProt Q12809)
# Experiment: primary screen, population patch clamp on CHO cells stably expressing hERG
# Sequence of human ether-à-go-go-related gene (hERG) potassium channel (Q12809 whole entry, looked up): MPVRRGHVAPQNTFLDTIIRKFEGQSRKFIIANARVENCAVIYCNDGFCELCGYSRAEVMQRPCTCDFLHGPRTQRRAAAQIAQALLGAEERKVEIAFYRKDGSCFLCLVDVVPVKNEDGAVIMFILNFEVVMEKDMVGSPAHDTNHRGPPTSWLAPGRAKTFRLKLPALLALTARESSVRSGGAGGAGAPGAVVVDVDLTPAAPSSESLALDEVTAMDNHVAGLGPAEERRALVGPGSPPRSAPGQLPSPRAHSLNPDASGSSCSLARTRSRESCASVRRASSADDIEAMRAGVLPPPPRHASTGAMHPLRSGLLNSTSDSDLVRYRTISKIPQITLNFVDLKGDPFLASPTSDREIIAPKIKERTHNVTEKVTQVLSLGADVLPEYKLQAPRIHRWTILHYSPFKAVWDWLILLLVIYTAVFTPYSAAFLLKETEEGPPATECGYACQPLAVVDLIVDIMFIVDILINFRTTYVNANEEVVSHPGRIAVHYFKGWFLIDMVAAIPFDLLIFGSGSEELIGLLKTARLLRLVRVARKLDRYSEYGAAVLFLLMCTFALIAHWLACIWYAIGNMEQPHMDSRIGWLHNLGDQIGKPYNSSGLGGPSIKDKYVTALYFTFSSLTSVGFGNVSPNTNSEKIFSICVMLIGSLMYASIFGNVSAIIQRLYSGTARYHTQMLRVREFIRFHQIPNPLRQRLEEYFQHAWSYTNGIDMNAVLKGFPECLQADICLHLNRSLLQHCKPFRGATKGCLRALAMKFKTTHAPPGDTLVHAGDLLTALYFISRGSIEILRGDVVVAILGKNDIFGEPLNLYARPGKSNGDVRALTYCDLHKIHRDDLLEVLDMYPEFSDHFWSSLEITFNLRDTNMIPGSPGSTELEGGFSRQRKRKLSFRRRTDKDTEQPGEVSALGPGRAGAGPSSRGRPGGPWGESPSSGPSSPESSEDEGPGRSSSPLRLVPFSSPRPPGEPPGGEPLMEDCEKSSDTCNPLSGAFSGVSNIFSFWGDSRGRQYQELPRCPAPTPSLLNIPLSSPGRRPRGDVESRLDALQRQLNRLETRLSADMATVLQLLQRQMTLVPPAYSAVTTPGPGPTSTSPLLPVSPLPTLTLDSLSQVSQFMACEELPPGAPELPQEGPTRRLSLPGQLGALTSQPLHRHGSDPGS
row,SMILES,"hERG current change (%, negative = inhibition) at 1uM [%]"
1,O=C(O)Cc1coc2ccc3ccccc3c12,15
2,CCOCCCNC(=O)c1ccc2c(=O)n(CCCOCC)c(=S)[nH]c2c1,4.04
3,COc1ccc2cc1Oc1ccc(cc1)C[C@H]1c3cc(c(OC)cc3CCN1C)Oc1c(OC)c(OC)cc3c1[C@H](C2)N(C)CC3,9.67
4,CS(=O)(=O)N1CCc2ccccc2C1,3.71
5,CCN(CC(=O)NCc1cccs1)C(=O)c1ccc(S(=O)(=O)N(CC)c2ccccc2)cc1,-12.1
6,CCCc1c(C)[nH]c2nc3ccccc3n2c1=O,11.4
7,COc1ccc(N(CC(=O)NCCc2ccc(S(N)(=O)=O)cc2)S(=O)(=O)c2c(C)noc2C)cc1,17.4
8,COc1cc(/C=C/C(=O)O)cc(S(=O)(=O)N2CCCc3ccccc32)c1OC,15
9,Cc1ccccc1NC(=O)C1CCN(C(=O)N2CCOc3ccccc32)CC1,11.9
10,COc1ccc(Oc2nnnn2-c2ccccc2)cc1,0.277
11,Cc1ccc(NC(=O)c2cc3c(s2)CCC3)cc1S(=O)(=O)N1CCOCC1,5.84
12,Cc1ccc(-c2c(C(=O)N(C)Cc3ccccc3)oc(=O)c3ccccc23)cc1,12.2
13,C=CCSC1=N/C(=C\c2sccc2C)C(=O)S1,-3.89
14,CCCCCCCCCc1nc2sc3c(c2c(=O)n1NC(=O)c1ccc([N+](=O)[O-])cc1)CC(C)(C)OC3,-0.493
15,Cc1ccc(C(C)C)cc1S(=O)(=O)NCc1ccccn1,7.26
16,Cn1cnnc1SCC(=O)N1N=C2/C(=C/c3ccco3)CCCC2C1c1ccco1 (stereo not drawn),-6.2
17,Cc1nc2nc[nH]n2c(=O)c1NS(C)(=O)=O,8.52
18,O=C(Cc1ccccc1)N1CCN(c2ncccn2)CC1,8.69
19,CCCCN(C(=O)C1=COCCO1)c1c(N)n(Cc2ccccc2)c(=O)[nH]c1=O,10.9
20,CCCCN(CC)CCCNC(=O)c1cn(CC(C)C)c(=O)c2c1c1ccccc1n2C,9.29
21,Cc1nnc(SCC(=O)c2ccc(Cl)cc2)n(N)c1=O,10.7
22,CCOc1cc2c(cc1OCC)-n1cccc1C(c1cc(OC)ccc1F)NC2.Cl (stereo not drawn),12
23,Cc1cccc(CC2CC(=O)N(CCc3ccc4c(c3)OCO4)C2=O)c1 (stereo not drawn),21.6
24,COC(=O)C(C(=O)OC)c1ccccc1[N+](=O)[O-],15
25,O=C(CSc1nnc(CNC(=O)c2cccs2)o1)Nc1ccccc1,3.29
26,CCN(CC)c1ccc(C(=S)NCc2ccccc2)cc1,0.779
27,O=C(/C=C/c1cn(CC(O)CN2CCOCC2)c2ccccc12)c1cccs1 (stereo not drawn),8.14

row,SMILES,"hERG current change (%, negative = inhibition) at 1uM [%]"
1,Cc1ccc(S(=O)(=O)NC(=S)c2ccccc2)cc1,14.6
2,C[C@@H]1C[C@H](Nc2ccccc2)c2ccccc2N1C(=O)c1cccnc1,7.72
3,COc1ccc(OCc2cc(C(=O)N(C)C3CCOCC3)no2)c2ccccc12,10.4
4,Cc1ccc(C)c(N(C(=O)c2snc(C(N)=O)c2N)C(C(=O)NCC2CCCO2)c2ccc(C)o2)c1 (stereo not drawn),15
5,CCCCC(=O)NC1(C(F)(F)F)NC(=O)N(C)C1=O (stereo not drawn),18.7
6,CCN(c1ccc(OC)cc1)S(=O)(=O)c1ccc2c(c1)CC(C)N2C(=O)C1CC1 (stereo not drawn),14.6
7,COc1ccc(OC)c2sc(N(CCCN(C)C)C(=O)c3ccc(S(=O)(=O)N4CCc5ccccc5C4)cc3)nc12.Cl,4.33
8,COc1ccc(/C=N/NC(=O)c2ccccc2O)cc1CSc1ccccn1,5.27
9,Cc1ccc(C(=O)NNC(=O)COC(=O)COc2ccccc2C#N)cc1,12.7
10,O=C(COC(=O)c1ccc[nH]c1=O)NC1CCCC1,11.8
11,COCCCn1c(=NC(=O)c2ccncc2)c(C#N)cc2c(=O)n3cccc(C)c3nc21,-53.3
12,COc1ccccc1NC(=O)c1ccc(NC(=O)COC(=O)CCC2CCCC2)cc1,18.1
13,Cc1ccccc1NC(=O)NNC(=O)CCc1ccccc1,13.7
14,CCc1ccc(OCC(=O)c2c(O)c3ccccc3oc2=O)cc1,5.7
15,COc1ccc(CCN(CC(=O)NC2CCCC2)C(=O)Cn2nnc(-c3ccc(C)o3)n2)cc1OC,14.4
16,COc1ccc(/C=N/NC(=S)Nc2cc(C(F)(F)F)ccc2Cl)cc1,7.19
17,COc1cc2c(cc1OC)-c1c(OC)c(OC)cc3c1[C@H](C2)[N+](C)(C)CC3.[I-],-1.77
18,CCn1c(C)cc(C(=O)CN2C(=O)c3ccccc3S2(=O)=O)c1C,7.92
19,CSCCC(NS(=O)(=O)c1cc(C(=O)O)ccc1Cl)C(=O)O (stereo not drawn),20.4
20,CCOC(=O)c1ccc(NC(=O)CN(c2ccc(C)cc2)S(=O)(=O)c2c(C)nn(C)c2C)cc1,9.61
21,O=C(NCc1ccc2c(c1)OCO2)C1CCC(CNS(=O)(=O)c2ccc(Cl)cc2)CC1 (stereo not drawn),-1.07
22,CCC1COCCS(=O)(=O)N1Cc1ccc(Cl)cc1 (stereo not drawn),2.79
23,COc1cccc(C(=O)CSc2nnc(-c3cc(OC)cc(OC)c3)o2)c1,-0.473
24,N#Cc1c(Oc2ccc3ccccc3c2)sc(C(=O)c2ccccc2)c1N,8.36
25,COc1ccccc1OCC(=O)Nc1nc(-c2ccc(S(=O)(=O)N3CCOCC3)cc2)cs1,10.2
26,COc1ccc(/C=N/NC(=O)c2cc(C34CC5CC(CC(C5)C3)C4)[nH]n2)cc1OC,3.03
27,CCc1ccc(CNCCc2ccc(F)cc2)cc1,-18.2
